Reference: the BET-seq Pho4 binding data (Le et al. 2018)
Some of the results follow. Values were computed here from the reads of four pooled replicates and scatter widely.

The sequences below were run against T1, Pho4 (S. cerevisiae) (UniProt P07270) (assay: relative binding free energy (BET-seq); higher = weaker binding). Conditions: reference: library average.
T1 sequence: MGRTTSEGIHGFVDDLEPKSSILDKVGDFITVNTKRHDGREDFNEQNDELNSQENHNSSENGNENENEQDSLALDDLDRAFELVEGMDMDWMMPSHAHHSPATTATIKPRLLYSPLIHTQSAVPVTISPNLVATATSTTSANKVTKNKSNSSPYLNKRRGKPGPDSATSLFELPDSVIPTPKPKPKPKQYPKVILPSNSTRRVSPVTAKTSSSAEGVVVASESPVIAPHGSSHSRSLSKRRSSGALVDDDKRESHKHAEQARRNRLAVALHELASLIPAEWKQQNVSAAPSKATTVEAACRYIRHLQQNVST

Row | Sequence | relative binding free energy [kcal/mol]
1 | TAAGGCACGTGGGGGA | -0.23
2 | AGGGTCACGTGACTAG | -0.01
3 | CAATTCACGTGGGTTA | 0.18
4 | GGATTCACGTGTCTAT | 0.37
5 | GTTGGCACGTGGAAGT | 0.06
6 | GTGATCACGTGATATT | 0.23
7 | ATAGCCACGTGAGGGG | 0.05
8 | ATTATCACGTGTGAGT | 0.23
9 | TGACGCACGTGGGTGG | -0.22
10 | TGGTCCACGTGTGGCT | 0.15
11 | TGGCGCACGTGTGGGA | -0.04
12 | TGGCACACGTGGTGCG | 0.06
13 | GATGTCACGTGAGTAA | 0.27
14 | GGAATCACGTGTGAAG | 0.3
15 | ACGATCACGTGATGGG | 0.16
16 | AGTGTCACGTGTTTGA | -0.07
17 | ATGTGCACGTGGACGA | -0.08
18 | TGGTACACGTGAGAGT | 0.28
19 | ATGTGCACGTGAGTGC | 0.06
20 | TTGTACACGTGCTGGA | 0.15
21 | ATGATCACGTGTGGAT | 0.13

Row | Sequence | relative binding free energy [kcal/mol]
22 | GTTACCACGTGCAGGG | 0.1
23 | AACGTCACGTGGGGAG | -0.01
24 | TCATGCACGTGTTGGG | -0.01
25 | TTGATCACGTGGCTGT | 0.18
26 | GTTGTCACGTGAGCAT | 0.24
27 | GGATTCACGTGGGGTG | 0.12
28 | AAAGGCACGTGAGTCG | 0.31
29 | TTCGTCACGTGATTAT | 0.11
30 | AATGACACGTGTCAGG | 0.19
31 | AGGTACACGTGAATGG | 0.11
32 | GGGTACACGTGCATTG | 0.07
33 | ATTTTCACGTGGATTC | 0.28
34 | GGAGCCACGTGGATGG | -0.15
35 | ATTTGCACGTGCTCGT | -0.09
36 | AGAAACACGTGGTTAT | -0.01
37 | GCACACACGTGGGGTG | -0.06
38 | CTTGTCACGTGGTGTC | 0.02
39 | GGTCGCACGTGTCGTG | 0.1
40 | AAATTCACGTGGATAG | 0.33
41 | GATAACACGTGTATAT | 0.2
42 | TAGGTCACGTGATTTT | 0.31

Row | Sequence | relative binding free energy [kcal/mol]
43 | TCAGTCACGTGAGAGT | 0.3
44 | ACTAGCACGTGGGGTA | -0.28
45 | GGAGTCACGTGGGCGA | 0.08
46 | GATTCCACGTGAATGG | 0.57
47 | TCTTGCACGTGGTCTG | -0.19
48 | TATCACACGTGTGAGT | 0.1
49 | TAGTGCACGTGCTGGC | -0.08
50 | CATGTCACGTGGGATT | -0.05
51 | GTTATCACGTGCTGGA | 0.16
52 | TTAGTCACGTGGTCAG | -0.01
53 | CGCTGCACGTGATGTG | 0.05
54 | CGTGACACGTGGATTG | -0.09
55 | TAAAGCACGTGTGTAT | 0.08
56 | AGTAACACGTGATGGG | 0.11
57 | TCCTCCACGTGTGGGT | 0.23
58 | ATCTTCACGTGTGGAG | 0.16
59 | TTAATCACGTGGTTCG | 0.04
60 | ATTGGCACGTGGTCAA | -0.17
61 | GGAGACACGTGTGTGG | -0.05
62 | GTGAACACGTGTGTTC | 0.26
63 | ATTAACACGTGGCTGG | -0.13
